Several values for one entry are separate records, joined by “and”; a condition that tells them apart may be missing. Equal values may be shown once. Where a name gives a salt, the structure may show the parent alone. Screen size: about 5,800 compounds; about 620 (11%) showed activity.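 The calls were made as follows: active = score above a cut-off or among the top three wells of a plate; in these data no inactive exceeds 0.85.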 This is a selection; strong and weak results do not stand in their true shares.

The assay relates to primary human hepatic stellate cells (donor 1). The assay can be described thus: scaled lipid accumulation score (0 = DMSO-like, 1 = nortriptyline-like); higher = stronger HSC inactivation (lipid re-accumulation), active = hit call of the paper. Particulars: 48 h. How it is done: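 Primary lipid accumulation screen in primary human hepatic stellate cell myofibroblasts (donor 1, passage 8) in 384-well plates. 100 nL of library compound was pin-transferred into 30 µL medium in duplicate, and cells were treated for 48 h. The 'Scaled' score combines distance from plate baseline, toxicity and reproducibility penalties, and is normalised to nortriptyline (positive) and DMSO (negative) controls on each plate. A hit is defined as scaled >0.85 or among the top 3 wells per plate.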

Where [1] appears, read: library stock concentration: 80 uM.
[2] abbreviates: library stock concentration: 400 uM.
Where [3] appears, read: library stock concentration: 2 mM.
[4] abbreviates: library stock concentration: 3.33 mM.
[5] abbreviates: library stock concentration: 10 mM.
[6] abbreviates: library stock concentration: 1 mM.
The mark [7] stands for this setting: library stock concentration: 4 mM.

Regarding `Cc1cc(Nc2nc(N[C@@H](C)c3ncc(F)cn3)ncc2Cl)[nH]n1`, the “scaled lipid accumulation score” value under setting [1] was inactive: 0.018; the “scaled lipid accumulation score” value under setting [2] was inactive: ≤ -0.009; the “scaled lipid accumulation score” value under setting [3] was inactive: ≤ -0.009; the “scaled lipid accumulation score” value under setting [4] is inactive: ≤ 0; the “scaled lipid accumulation score” value under setting [5] was inactive: ≤ 0 and inactive: ≤ -0.001. In the case of `O=C(O)c1cc(O)c2ccc(Cl)cc2n1` [7-Chlorokynurenic acid], under setting [5], the “scaled lipid accumulation score” value was inactive: 0.023. On the same count and under the same terms, for `NCCS(=O)O` [Hypotaurine] the value was inactive: ≤ -0.07. Turning to `COC[C@H](NC(=O)c1cnc(C)s1)C(=O)N[C@@H](COC)C(=O)N[C@@H](Cc1ccccc1)C(=O)[C@@]1(C)CO1` [Oprozomib (ONX 0912)], the “scaled lipid accumulation score” value is, setting by setting: under setting [4], inactive: 0.798; under setting [5], inactive: 0.588.

As to `CCCCCC(O)C=CC1CC2CC(C1CC=CCCCC(=O)O)C2(C)C` [15(R)-Pinane Thromboxane A2], under setting [6], the “scaled lipid accumulation score” value is inactive: ≤ 0. Take `O=C(O)CC1CC(c2ccccc2)=NO1` (stereo unspecified): the “scaled lipid accumulation score” value is inactive: ≤ -0.009 under setting [4] and inactive: ≤ 0 under setting [5]. Turning to `CN(C)[C@@H]1C(O)=C(C(N)=O)C(=O)[C@@]2(O)C(O)=C3C(=O)c4c(O)ccc(Cl)c4[C@@H](O)[C@H]3C[C@@H]12` [Demeclocycline], the “scaled lipid accumulation score” value under setting [5] was inactive: ≤ 0. For `CN(C)[C@@H]1C(O)=C(C(N)=O)C(=O)[C@@]2(O)C(O)=C3C(=O)c4c(O)ccc(Cl)c4[C@@H](O)[C@H]3C[C@@H]12` [Demeclocycline hydrochloride], the “scaled lipid accumulation score” value is inactive: ≤ 0. The “scaled lipid accumulation score” value under setting [7] was inactive: ≤ -0.001. The “scaled lipid accumulation score” value under setting [5] was inactive: ≤ 0. On to `O=C(O)/C(=C\c1c(C(=O)O)[nH]c2cc(Cl)cc(Cl)c12)c1ccccc1`, for which, under setting [5], the “scaled lipid accumulation score” value is inactive: 0.017.

For the compound `O=C1c2ccccc2S(=O)(=O)N1CCCCN1CCN(c2ncccn2)CC1` [Ipsapirone], under setting [5], the “scaled lipid accumulation score” value is inactive: 0.014. With `Cn1c([N+](=O)[O-])cnc1COC(N)=O` [Ronidazole], the “scaled lipid accumulation score” value is inactive: ≤ 0. Further, the “scaled lipid accumulation score” value under setting [4] is inactive: ≤ 0. Moreover, under setting [5], the “scaled lipid accumulation score” value is inactive: ≤ -0.001 and inactive: 0.008. In the case of `COC(=O)c1ccc(O)c2nc3c(C=O)c(O)cc(O)c3nc12` [Lomofungin], where the note is “library stock concentration: 6.4 mM”, the “scaled lipid accumulation score” value is inactive: ≤ -0.006.

Turning to `NC(N)=O`, the “scaled lipid accumulation score” value is inactive: ≤ 0 under setting [5] and inactive: ≤ 0 (library stock concentration: 33.3 mM). For the compound `CCN(c1cc(-c2ccc(CN3CCOCC3)cc2)cc(C(=O)NCc2c(C)cc(C)[nH]c2=O)c1C)C1CCOCC1`, the “scaled lipid accumulation score” value reads like this: under setting [4], inactive: ≤ -0.009; under setting [5], inactive: 0.14. Take `CCCCC[C@H](O)/C=C/[C@H]1[C@H](O)CC(=O)[C@@H]1C/C=C/CCCC(=O)O` [5-trans Prostaglandin E2]: the “scaled lipid accumulation score” value under setting [6] was inactive: ≤ 0. Consider `c1ccc2nc(C3=NCCN3)cnc2c1` [BU 239 hydrochloride], for which the “scaled lipid accumulation score” value under setting [5] is inactive: ≤ 0. On the same count and under the same terms, for `CN(CCOc1ccc(CC2SC(=O)NC2=O)cc1)c1ccccn1` (stereo unspecified) the value was inactive: ≤ 0. Consider `CN(CCOc1ccc(CC2SC(=O)NC2=O)cc1)c1ccccn1` (stereo unspecified) [Rosiglitazone (potassium salt)], for which the “scaled lipid accumulation score” value under setting [6] was inactive: 0.04. Turning to `CN(CCOc1ccc(CC2SC(=O)NC2=O)cc1)c1ccccn1` (stereo unspecified) [Rosiglitazone], the “scaled lipid accumulation score” value reads like this: under setting [6], inactive: 0.047; under setting [4], inactive: 0.03; under setting [5], inactive: ≤ 0 and inactive: ≤ -0.027.

Take `CCC(=O)OCC(=O)[C@@]1(OC(=O)CC)[C@H](C)C[C@H]2[C@H]3[C@H]([C@@H](O)C[C@@]21C)[C@@]1(C)C=CC(=O)C=C1C[C@H]3Cl` [Alclometasone dipropionate]: the “scaled lipid accumulation score” value was inactive: ≤ 0. On the same count and under the same terms, for `C[n+]1cc2c3c(ccc2c2ccc4cc5c(cc4c21)OCO5)OCO3` [Sanguinarine] the value was active: 0.869.

As for `C[C@H]1C[C@@H]2[C@H]([C@@H](O)C[C@@]3(C)[C@H]2CC[C@]3(O)C(=O)COC(=O)CCC(=O)O)[C@@]2(C)C=CC(=O)C=C12` [Methylprednisolone sodium succinate], the “scaled lipid accumulation score” value under setting [7] was inactive: 0.015. Consider `Fc1cc(-c2cccc3ncc(-c4cnn(C5CCNCC5)c4)nc23)cc(F)c1CN1CCOCC1`, for which the “scaled lipid accumulation score” value is, setting by setting: under setting [4], inactive: 0.784; under setting [5], inactive: 0.433. With `COC(=O)/C=C/C(=O)N(O)CCCCNCc1ccc(COC(=O)Nc2cccc3ccccc23)cc1` [Methylstat], the “scaled lipid accumulation score” value runs as follows: under setting [1], inactive: ≤ 0; under setting [2], inactive: ≤ 0; under setting [3], inactive: ≤ 0; under setting [5], inactive: 0.26. Consider `COc1ccc(C[C@@H]2c3cc(OC)c(OC)cc3CC[N@+]2(C)CCC(=O)OCCCCCOC(=O)CC[N@@+]2(C)CCc3cc(OC)c(OC)cc3[C@H]2Cc2ccc(OC)c(OC)c2)cc1OC` [Cisatracurium Besylate], for which the “scaled lipid accumulation score” value reads like this: under setting [4], inactive: ≤ 0; under setting [5], inactive: ≤ 0. In the case of `Nc1cc(-c2ccncc2)c[nH]c1=O`, under setting [5], the “scaled lipid accumulation score” value is inactive: ≤ 0. As to `Nc1cc(-c2ccncc2)c[nH]c1=O` [Amrinone], the “scaled lipid accumulation score” value is inactive: ≤ 0.

Take `CCOC(=O)c1c(C)n(C)c2ccc(O)cc12` [Mecarbinate]: the “scaled lipid accumulation score” value by setting is: under setting [4], inactive: ≤ 0; under setting [5], inactive: 0.009. As to `CS(=O)(=O)Nc1ccc([N+](=O)[O-])cc1OC1CCCCC1`, the “scaled lipid accumulation score” value under setting [6] is inactive: ≤ 0. Consider `CC(N)C12CC3CC(CC(C3)C1)C2` (stereo unspecified) [Rimantadine hydrochloride], for which, under “library stock concentration: 9.3 mM”, the “scaled lipid accumulation score” value is inactive: 0.404. For `CC(N)C12CC3CC(CC(C3)C1)C2` (stereo unspecified) [Rimantadine], the “scaled lipid accumulation score” value reads like this: under setting [4], inactive: ≤ 0; under setting [5], inactive: 0.113. For `COc1cc(Nc2ncc(F)c(Nc3ccc4c(n3)NC(=O)C(C)(C)O4)n2)cc(OC)c1OC` [R406 (free base)] the same measures were active: 0.918 and active: 1.16.

`COC(=O)C(N)CS` (stereo unspecified) [Mecysteine hydrochloride]: the “scaled lipid accumulation score” value under setting [5] was inactive: ≤ 0.

Consider `CCCCCCCCCCCCCCCC(=O)NCCc1ccc(O)c(O)c1` [N-Palmitoyl Dopamine], for which the “scaled lipid accumulation score” value under setting [6] is inactive: ≤ 0. Regarding `CSc1nc(-c2ccnc(NC(C)c3ccccc3)c2)c(-c2ccc(F)cc2)[nH]1` (stereo unspecified) [p38 MAP Kinase Inhibitor III], under setting [4], the “scaled lipid accumulation score” value is inactive: ≤ 0. Take `Brc1c(NC2=NCCN2)ccc2nccnc12` [Brimonidine Tartrate]: the “scaled lipid accumulation score” value reads like this: under setting [4], inactive: ≤ 0; under setting [5], inactive: ≤ -0.001. For the compound `Brc1c(NC2=NCCN2)ccc2nccnc12`, the “scaled lipid accumulation score” value under setting [5] is inactive: ≤ 0 and inactive: 0.02. Consider `Brc1c(NC2=NCCN2)ccc2nccnc12` [UK 14,304 tartrate], for which the “scaled lipid accumulation score” value under setting [5] was inactive: ≤ -0.001. Same read-out and setting: the figure for `CN(C)CCOC(=O)COc1ccc(Cl)cc1` [Centrophenoxine hydrochloride] is inactive: 0.032. On to `CN(C)CCOC(=O)COc1ccc(Cl)cc1` [Meclofenoxate (Centrophenoxine) HCl], for which the “scaled lipid accumulation score” value under setting [4] was inactive: ≤ 0 and the “scaled lipid accumulation score” value under setting [5] is inactive: 0.043. `CN(C)CCOC(=O)COc1ccc(Cl)cc1` [Meclofenoxate hydrochloride]: the “scaled lipid accumulation score” value is inactive: ≤ 0. Also, the “scaled lipid accumulation score” value under setting [5] is inactive: ≤ -0.027.

Take `N#C/C(=C\c1ccc(O)c(O)c1)C(=O)NCCCNC(=O)/C(C#N)=C/c1ccc(O)c(O)c1` [Tyrphostin AG 537]: the “scaled lipid accumulation score” value under setting [5] was inactive: ≤ 0. As to `O=C(OCc1ccccc1)c1ccccc1` [Benzyl benzoate], the “scaled lipid accumulation score” value runs as follows: (library stock concentration: 9.4 mM) inactive: ≤ 0; under setting [5], inactive: 0.008. Turning to `CCCc1nc(C(C)(C)O)c(C(=O)O)n1Cc1ccc(-c2ccccc2-c2nnn[nH]2)cc1` [Olmesartan], the “scaled lipid accumulation score” value (library stock concentration: 3.6 mM) was inactive: 0.042.

In the case of `C(=C/CCNC)(/c1c(cccc1)CC2)\c3c2cccc3` [Nortriptyline], for the setting “library stock concentration: 7.6 mM”, the “scaled lipid accumulation score” value is active: 0.971. For the compound `O=C(O)/C=C\C(=O)O.O=C(O)/C=C\C(=O)O.c1cc(CN2CCCCC2)cc(OCCCNc2nc3ccccc3s2)c1`, the “scaled lipid accumulation score” value under setting [5] is active: 1.03.

`N[C@H](C(=O)O)[C@H](OCc1ccccc1)C(=O)O` (racemic): under setting [5], the “scaled lipid accumulation score” value is inactive: ≤ -0.006. In the case of `Cc1ccc2c(Cl)cc(Cl)c(O)c2n1` [Chlorquinaldol], the “scaled lipid accumulation score” value by setting is: under setting [4], inactive: ≤ 0; under setting [5], inactive: 0.307. With `Cc1ccc2c(Cl)cc(Cl)c(O)c2n1`, the “scaled lipid accumulation score” value under setting [5] was inactive: ≤ 0. `OC(CCN1CCCCC1)(c1ccccc1)C1CCCCC1` (stereo unspecified) [Trihexyphenidyl hydrochloride]: the “scaled lipid accumulation score” value reads like this: (library stock concentration: 5.9 mM) inactive: 0.376; under setting [5], inactive: 0.008 and inactive: 0.478. Take `OC(CCN1CCCCC1)(c1ccccc1)C1CCCCC1` (stereo unspecified) [Trihexyphenidyl-D,L Hydrochloride]: the “scaled lipid accumulation score” value is inactive: 0.42.

As to `COc1ccc2[nH]c([S+]([O-])Cc3ncc(C)c(OC)c3C)nc2c1` (stereo unspecified), the “scaled lipid accumulation score” value under setting [5] is inactive: ≤ 0.

As to `COc1ccc2[nH]c([S+]([O-])Cc3ncc(C)c(OC)c3C)nc2c1` (stereo unspecified) [Omeprazole], the “scaled lipid accumulation score” value is inactive: ≤ 0. In addition, the “scaled lipid accumulation score” value under setting [4] is inactive: 0.017. For the same compound, the “scaled lipid accumulation score” value (library stock concentration: 5.8 mM) was inactive: ≤ 0. Moreover, under setting [5], the “scaled lipid accumulation score” value is inactive: ≤ 0 and inactive: ≤ -0.001. Consider `COC(=O)C(C)c1ccc(C(=O)c2cccs2)cc1` (stereo unspecified) [Suprofen methyl ester], for which the “scaled lipid accumulation score” value under setting [5] is inactive: ≤ 0. As to `CCCCC[C@H](O)/C=C/[C@H]1C(=O)C[C@H](O)[C@@H]1C/C=C\CCCC(=O)O` [Prostaglandin D2], under setting [6], the “scaled lipid accumulation score” value is inactive: ≤ 0.

As to `CCCCC[C@H](O)/C=C/[C@H]1C(=O)C[C@H](O)[C@@H]1C/C=C\CCCC(=O)O` [Prostaglandin  D2], the “scaled lipid accumulation score” value under setting [6] is inactive: ≤ -0.021. On to `COc1cc(OC)c(C(=O)CCCCN2CCC3(CC2)NC(=O)NC3=O)cc1NS(=O)(=O)c1ccc(C(F)(F)F)cc1.Cl`, for which the “scaled lipid accumulation score” value under setting [5] is active: 0.941. In the case of `NC(=S)N/N=C/c1ncccc1N` [Triapine], the “scaled lipid accumulation score” value runs as follows: under setting [4], inactive: ≤ -0.009; under setting [5], inactive: ≤ 0. For the compound `O=C(O)CCC/C=C\C[C@H]1[C@@H](O)CC(=O)[C@@H]1/C=C/[C@@H](O)CCc1ccccc1` [17-phenyl trinor Prostaglandin D2], the “scaled lipid accumulation score” value under setting [6] was inactive: ≤ 0. With `CC(=O)Nc1ccc(O)cc1` [Acetaminophen], the “scaled lipid accumulation score” value was inactive: ≤ 0. Under setting [5], the “scaled lipid accumulation score” value was inactive: ≤ 0 and inactive: ≤ -0.006. Besides, the “scaled lipid accumulation score” value (library stock concentration: 13.2 mM) was inactive: ≤ -0.001.

As to `CC(=O)Oc1c(C)c(C)c2c(c1C)CCC(C)(CCCC(C)CCCC(C)CCCC(C)C)O2` (stereo not drawn) [Alpha-tochopheryl acetate], the “scaled lipid accumulation score” value under setting [5] was inactive: 0.117. Take `O=C1N[C@@H]2[C@@H](O)[C@@H](O)[C@H](O)[C@@H](CO)N2C1=O` [Kifunensine]: the “scaled lipid accumulation score” value under setting [6] was inactive: 0.034.

(Values after the supplement of paper PMC9135407.)
